According to article PMC4336329 (PLoS ONE, 2015):
The whole screen tested about 310,000 compounds, of which about 14,000 (4.5%) showed an effect of 50% or more. Effects have a minus sign here. Some of the results follow.
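Note: peak tail current of the secondary pulse compared with the same well before compound.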

These compounds were tested against human ether-à-go-go-related gene (hERG) potassium channel (human, UniProt Q12809) (assay: primary screen, population patch clamp on CHO cells stably expressing hERG).
Chain of human ether-à-go-go-related gene (hERG) potassium channel (Q12809 whole entry, looked up): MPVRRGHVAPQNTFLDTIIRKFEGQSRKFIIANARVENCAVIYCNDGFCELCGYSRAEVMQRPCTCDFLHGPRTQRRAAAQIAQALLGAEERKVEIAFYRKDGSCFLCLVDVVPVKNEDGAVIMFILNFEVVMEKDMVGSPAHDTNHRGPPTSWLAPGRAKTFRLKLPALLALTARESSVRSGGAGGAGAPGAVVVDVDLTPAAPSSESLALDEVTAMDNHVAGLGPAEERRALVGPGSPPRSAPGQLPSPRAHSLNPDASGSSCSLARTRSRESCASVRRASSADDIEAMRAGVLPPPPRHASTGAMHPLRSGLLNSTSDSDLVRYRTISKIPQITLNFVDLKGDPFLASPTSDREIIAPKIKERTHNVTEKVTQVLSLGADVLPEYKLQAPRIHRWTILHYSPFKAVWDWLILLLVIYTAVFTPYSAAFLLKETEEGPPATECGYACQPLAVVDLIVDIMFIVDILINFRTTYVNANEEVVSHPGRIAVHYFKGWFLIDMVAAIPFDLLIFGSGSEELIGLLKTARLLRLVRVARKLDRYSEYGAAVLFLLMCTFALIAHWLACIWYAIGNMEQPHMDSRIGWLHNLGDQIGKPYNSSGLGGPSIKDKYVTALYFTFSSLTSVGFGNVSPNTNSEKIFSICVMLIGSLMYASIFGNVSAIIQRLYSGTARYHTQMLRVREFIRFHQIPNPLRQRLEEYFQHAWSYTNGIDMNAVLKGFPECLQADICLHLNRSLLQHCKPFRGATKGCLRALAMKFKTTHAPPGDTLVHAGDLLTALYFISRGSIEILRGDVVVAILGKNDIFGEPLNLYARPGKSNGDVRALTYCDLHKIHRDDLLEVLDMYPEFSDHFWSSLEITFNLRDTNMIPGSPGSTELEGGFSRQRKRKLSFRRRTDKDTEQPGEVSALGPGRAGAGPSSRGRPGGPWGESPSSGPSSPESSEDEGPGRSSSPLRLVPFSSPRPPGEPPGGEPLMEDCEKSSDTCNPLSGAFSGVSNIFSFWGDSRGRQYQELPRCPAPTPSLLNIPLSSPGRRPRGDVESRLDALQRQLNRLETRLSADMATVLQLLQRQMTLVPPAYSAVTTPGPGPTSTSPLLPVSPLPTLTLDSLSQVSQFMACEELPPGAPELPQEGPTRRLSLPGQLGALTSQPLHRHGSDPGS
With `COc1ccc2cc([C@H](C)C(=O)[O-])ccc2c1.[Na+]` the “hERG current change (%, negative = inhibition) at 10uM” value was 10.3%.
With `O=[N+]([O-])c1ccc(OCC(O)CN(C2CCCCC2)C2CCCCC2)cc1` (centres unmarked) the “hERG current change (%, negative = inhibition) at 10uM” value was -75.8%.
With `O=[N+]([O-])c1ccc(CSc2ncnc3ccccc23)cc1` the “hERG current change (%, negative = inhibition) at 10uM” value was -31.8%.
In the case of `CCOC(=O)c1nn(-c2ccc(C)cc2)c(C)c1C(C)=O`, the “hERG current change (%, negative = inhibition) at 10uM” value is reported as 4.57%.
In the case of `Cc1ccc(C(CC(=O)NCc2ccco2)c2ccc(OC(C)C)cc2)cc1` (centres unmarked), the “hERG current change (%, negative = inhibition) at 10uM” value is reported as -23.6%.
With `Cc1ccc(CN2CC(C(=O)NC(c3nc4ccccc4[nH]3)C(C)C)CC2=O)cc1` (centres unmarked) the “hERG current change (%, negative = inhibition) at 10uM” value was -6.03%.
For `OCC1OC(Oc2cccc3ccccc23)C(O)C(O)C1O` (centres unmarked), the “hERG current change (%, negative = inhibition) at 10uM” value was 12.3%.
With `CCCn1c(=O)c2[nH]c(C3CCCC3)nc2n(CCC)c1=O` the “hERG current change (%, negative = inhibition) at 10uM” value was 9.9%.
In the case of `COC(=O)CSc1nc(SCc2ccccc2Cl)nc2c1CCCC2`, the “hERG current change (%, negative = inhibition) at 10uM” value is reported as 2.88%.
In the case of `O=C(Nc1ccccn1)Nc1ccccc1[N+](=O)[O-]`, the “hERG current change (%, negative = inhibition) at 10uM” value is reported as 11.6%.
With `O=C(Nc1ccc(F)c([N+](=O)[O-])c1)C1CCCO1` (centres unmarked) the “hERG current change (%, negative = inhibition) at 10uM” value was 10.5%.
In the case of `CCOC(=O)C1(CCc2ccccc2)CCN(Cc2ccc3c(c2)OCCO3)CC1`, the “hERG current change (%, negative = inhibition) at 10uM” value is reported as -84.4%.
For `COc1ccc(-c2csc(N3CCN(C(=O)c4ccco4)CC3)n2)cc1`, the “hERG current change (%, negative = inhibition) at 10uM” value was -8.87%.
`Cc1cccc(NC(=S)NNC(=O)c2ccc3c(c2)OCO3)c1` was tested, and the “hERG current change (%, negative = inhibition) at 10uM” value was 15.3%.
In the case of `Cc1c(Cl)c([N+](=O)[O-])nn1Cc1ccc(C(=O)N/N=C\c2cc(Cl)ccc2O)o1`, the “hERG current change (%, negative = inhibition) at 10uM” value is reported as 14.9%.
In the case of `O=C(CCCCCCCC(=O)NCC1CCCO1)NCC1CCCO1` (centres unmarked), the “hERG current change (%, negative = inhibition) at 10uM” value is reported as 0.822%.
With `CN(C)c1ccc(S(=O)(=O)N(C)C)cc1[N+](=O)[O-]` the “hERG current change (%, negative = inhibition) at 10uM” value was 19.3%.
With `CC(=O)Nc1ccc(N=Cc2ccc[nH]2)cc1` the “hERG current change (%, negative = inhibition) at 10uM” value was -4.47%.
For `Cc1ccc(-c2cc(C(=O)Nc3ccccc3C(N)=O)c3ccccc3n2)o1`, the “hERG current change (%, negative = inhibition) at 10uM” value was -8.43%.
`CCOc1ccc(OCc2ccc(C(=O)N3N=C(C(F)F)CC3(O)C(F)F)o2)cc1` (centres unmarked) was tested, and the “hERG current change (%, negative = inhibition) at 10uM” value was 16.5%.
In the case of `C=CCC1=C/C(=C\c2c(N)n3nc(CC(=O)N4CCOCC4)sc3nc2=O)C=C(OC)C1=O`, the “hERG current change (%, negative = inhibition) at 10uM” value is reported as 6.1%.
`CC(CNC(=O)c1ccc(Br)o1)NC(=O)c1ccc(Br)o1` (centres unmarked) was tested, and the “hERG current change (%, negative = inhibition) at 10uM” value was -0.676%.
With `CCOC(=O)N1CCN(CC(=O)Nc2cc(OCC)ccc2OCC)CC1.Cl` the “hERG current change (%, negative = inhibition) at 10uM” value was -68.1%.
In the case of `COc1ccccc1CN(C)C(=O)CN1CCN(C(=O)c2cccs2)CC1`, the “hERG current change (%, negative = inhibition) at 10uM” value is reported as -5.91%.
With `N#Cc1sc2nccc(Nc3ccccc3)c2c1N` the “hERG current change (%, negative = inhibition) at 10uM” value was 3.43%.
In the case of `Cc1cc(C)cc(NS(=O)(=O)c2coc(C(N)=O)c2)c1`, the “hERG current change (%, negative = inhibition) at 10uM” value is reported as -7.02%.
With `O=C(c1cn(-c2ccccc2)nc1-c1cccc([N+](=O)[O-])c1)N1CCCCC1` the “hERG current change (%, negative = inhibition) at 10uM” value was -5.02%.
In the case of `COC(=O)c1ccc(N=C(c2ccccc2)c2c(O)n(C)c(=O)n(C)c2=O)cc1`, the “hERG current change (%, negative = inhibition) at 10uM” value is reported as 6.79%.
For `Cc1cccc(NC(=O)N(Cc2cc3cc(C)cc(C)c3[nH]c2=O)CC2COCCO2)c1` (centres unmarked), the “hERG current change (%, negative = inhibition) at 10uM” value was -6.58%.
In the case of `CCN(c1ccccc1)S(=O)(=O)c1ccc(OC)c(NC(=O)Cc2ccc(OC)c(OC)c2)c1`, the “hERG current change (%, negative = inhibition) at 10uM” value is reported as -1.02%.
With `CCOc1ccc(/C=C/C(O)=C2/C(=O)N(C)C3(C)CC2c2ccccc2O3)cc1OC` (centres unmarked) the “hERG current change (%, negative = inhibition) at 10uM” value was 0.355%.
For `CC(C)Cn1c(N)c(C(=O)CSc2nnnn2C)c(=O)n(C)c1=O`, the “hERG current change (%, negative = inhibition) at 10uM” value was 4.91%.
`Cc1ccc(NC(=O)CCNC(=O)Cn2cnc3ccccc3c2=O)cc1F` was tested, and the “hERG current change (%, negative = inhibition) at 10uM” value was 16.2%.
For `CC(C)(C)NC(=O)Nc1ccc(F)c(Cl)c1`, the “hERG current change (%, negative = inhibition) at 10uM” value was -0.708%.
For `COCCSc1nnc(NC(=O)C2CC(=O)N(CCc3ccc(F)cc3)C2)s1` (centres unmarked), the “hERG current change (%, negative = inhibition) at 10uM” value was 3.33%.
In the case of `Cc1nn(-c2ccccc2)c(Cl)c1C(=O)N1CCN(c2ncnc3c2cnn3-c2ccccc2)CC1`, the “hERG current change (%, negative = inhibition) at 10uM” value is reported as -29.1%.
For `COc1cc2[nH]c(=S)n(N(C(C)=O)C(C)=O)c(=O)c2cc1OC`, the “hERG current change (%, negative = inhibition) at 10uM” value was 10%.
`CC(NC(=O)c1ccccc1NC(=O)c1ccncc1)c1ccccc1` (centres unmarked) was tested, and the “hERG current change (%, negative = inhibition) at 10uM” value was 4.33%.
In the case of `COc1cc2c(cc1OC)CN(c1ccc([N+](=O)[O-])cc1Cl)CC2`, the “hERG current change (%, negative = inhibition) at 10uM” value is reported as -41%.
`O=C(CCN1C(=O)C2C3C=CC(C3)C2C1=O)NCCc1ccccc1Cl` (centres unmarked) was tested, and the “hERG current change (%, negative = inhibition) at 10uM” value was -8.46%.
In the case of `Cc1ccc(CNS(=O)(=O)c2ccc3c(c2)NC(=O)CS3)cc1`, the “hERG current change (%, negative = inhibition) at 10uM” value is reported as 8.97%.
With `Cc1n[nH]c(=O)c2c(NC(=O)CSc3nnc(-c4ccncc4)n3C)oc(C)c12` the “hERG current change (%, negative = inhibition) at 10uM” value was 12.8%.
With `CSc1cc(-c2ccncc2)nc(-c2ccc(Cl)cc2)c1` the “hERG current change (%, negative = inhibition) at 10uM” value was 9.7%.
With `OC[C@H]1O[C@@H](O[C@@H]2[C@@H](CO)O[C@@](O)(CO)[C@H]2O)[C@H](O)[C@@H](O)[C@H]1O` the “hERG current change (%, negative = inhibition) at 10uM” value was 15%.
